# Measurements reported in PubChem BioAssay AID504332 (National Center for Advancing Translational Sciences (NCATS), 2011).
# Among all 350,000 compounds or so, about 31,000 (8.9%) were called active. The shares of active, inactive and inconclusive entries below differ from those in the screen. Calls come from the whole dose curve; as a rule, active = well fitted inhibition curve with a large enough effect; inconclusive = small, poorly fitted or top-dose-only effect; inactive = no such curve, though single readings can be large or run the other way. Where the call is inconclusive, the potency comes from a doubtful curve fit. More than one record can exist for a structure, and the calls need not agree.
# Biological target: Histone-lysine N-methyltransferase EHMT2 (Homo sapiens) (UniProt Q96KQ7)
# UniProt Q96KQ7, sequence (Q96KQ7 whole entry, looked up): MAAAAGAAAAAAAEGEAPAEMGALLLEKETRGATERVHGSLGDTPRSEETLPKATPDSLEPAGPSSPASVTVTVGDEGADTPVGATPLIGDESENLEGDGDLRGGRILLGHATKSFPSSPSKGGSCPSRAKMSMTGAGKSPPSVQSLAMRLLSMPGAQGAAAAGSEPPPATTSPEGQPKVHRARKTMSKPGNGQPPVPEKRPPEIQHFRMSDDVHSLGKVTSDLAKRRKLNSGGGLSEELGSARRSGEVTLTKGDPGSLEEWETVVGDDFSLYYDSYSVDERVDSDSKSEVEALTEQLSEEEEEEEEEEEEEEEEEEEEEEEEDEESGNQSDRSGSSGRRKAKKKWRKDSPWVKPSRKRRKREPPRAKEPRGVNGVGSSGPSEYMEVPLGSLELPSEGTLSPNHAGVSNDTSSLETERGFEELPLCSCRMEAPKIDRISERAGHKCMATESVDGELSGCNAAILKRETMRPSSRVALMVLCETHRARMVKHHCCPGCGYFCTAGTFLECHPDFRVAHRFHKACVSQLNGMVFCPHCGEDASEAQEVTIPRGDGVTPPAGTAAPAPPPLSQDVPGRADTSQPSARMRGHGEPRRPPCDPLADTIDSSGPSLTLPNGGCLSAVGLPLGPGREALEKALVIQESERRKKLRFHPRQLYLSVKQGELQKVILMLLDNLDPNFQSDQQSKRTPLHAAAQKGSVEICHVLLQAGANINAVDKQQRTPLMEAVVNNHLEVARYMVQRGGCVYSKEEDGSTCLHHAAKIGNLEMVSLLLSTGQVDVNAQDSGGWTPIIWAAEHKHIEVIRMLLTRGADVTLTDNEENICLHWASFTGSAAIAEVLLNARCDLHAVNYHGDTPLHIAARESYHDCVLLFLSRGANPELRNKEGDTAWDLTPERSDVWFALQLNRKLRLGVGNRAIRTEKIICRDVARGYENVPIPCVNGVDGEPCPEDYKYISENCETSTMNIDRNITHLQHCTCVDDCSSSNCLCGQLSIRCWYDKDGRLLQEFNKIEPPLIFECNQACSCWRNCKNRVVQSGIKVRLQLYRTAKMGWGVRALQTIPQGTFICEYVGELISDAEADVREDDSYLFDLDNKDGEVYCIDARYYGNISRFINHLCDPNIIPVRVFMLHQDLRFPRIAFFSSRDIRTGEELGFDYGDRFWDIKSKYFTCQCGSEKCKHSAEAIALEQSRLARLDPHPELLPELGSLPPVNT
# Experiment: qHTS Assay for Inhibitors of Histone Lysine Methyltransferase G9a; note: nearly all actives have a fitted effect of over 75% in size
# Conditions: G9a H3K9 monomethylation, AlphaScreen, 2 h; activity, negative = inhibition: at 59 µM (top of the series) unless noted
# Outline: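 Signal arises when biotinylated H3K9 peptide, once monomethylated, bridges streptavidin donor and antibody-captured acceptor beads. Enzyme at 20 nM was preincubated 15 min with test compounds; peptide 500 nM and SAM 20 uM then reacted for 2 h.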
# % is set by controls: 0 for no effect and ±100 for the full control effect; potency is the fitted concentration of half-maximal effect; tags give direction and shape of the fitted curve.
Structure (SMILES),Potency,"activity, negative = inhibition"
COc1ccc(-c2cc(-c3ccc(OC)c(OC)c3)n[nH]2)c(O)c1,"inconclusive: 70.8 µM [inhibitor, single point]",
CCOC(=O)c1c(C)n(C)c2ccc(OC)c(NC(=O)CN3CCN(C(=O)c4ccco4)CC3)c12,active: 31.6 µM,
O=C(CCNS(=O)(=O)c1ccc(Br)s1)NCc1ccc2c(c1)OCO2,"inconclusive: 89.1 µM [inhibitor, partial curve, poor fit]",
CC(OC(=O)Cc1coc2ccc3ccccc3c12)C(=O)Nc1ncc(Cl)cc1Cl (configuration not stated),"inconclusive: 28.2 µM [inhibitor, single point]",
Cc1cc(C(C#N)c2ccccc2)n2ncnc2n1 (configuration not stated),"inconclusive: 79.4 µM [inhibitor, single point]",
COc1ccc(NC(=O)C(C)n2nc(C)c3c(C)n(-c4ccccc4)nc3c2=O)cc1Cl (configuration not stated),"inconclusive: 3.55 µM [inhibitor, partial curve, poor fit]",
Nc1ccccc1SCc1cn2ccccc2n1,active: 50.1 µM,
COc1cc(-c2nnc3sc(-c4cccs4)nn23)cc(OC)c1OC,,inconclusive: -74.7% [inhibitor]
COc1ccc(NC(=S)NNC(=O)C(C)n2nc(C)c([N+](=O)[O-])c2C)cc1 (configuration not stated),"inconclusive: 15.8 µM [inhibitor, partial curve, poor fit]",
O=C(CN1C(=O)NC2(CCCCCCC2)C1=O)NCc1ccc2c(c1)OCO2,"inconclusive: 11.2 µM [inhibitor, partial curve]",
Cc1cccc(NC(=O)c2ccc(F)c(S(=O)(=O)N(C)C3CCCCC3)c2)c1,,inactive: 11.7%
C=CCn1cc(C(=O)NCc2ccco2)c(=O)c2cc(S(=O)(=O)N3CCCCCC3)ccc21,"inconclusive: 50.1 µM [inhibitor, partial curve]",
CC(C)CCn1nnnc1C(c1ccc(F)cc1)N1CCN(C(=O)c2ccco2)CC1 (configuration not stated),active: 50.1 µM,
CCC(C)NCCCOc1ccc(Cl)cc1C(C)(C)C (configuration not stated),active: 12.6 µM,
COCCNC(=O)c1sc2ncn(CC(=O)N3CCCCC3)c(=O)c2c1C,,inactive: 5.59%
CCOc1ccc(CCNC(=O)CS(=O)Cc2nc(-c3ccccc3C)oc2C)cc1OCC (configuration not stated),"inconclusive: 5.62 µM [inhibitor, full curve, poor fit]",
CCc1ccc(C(=O)OCC(=O)N(CCOC)c2c(N)n(Cc3ccccc3)c(=O)[nH]c2=O)cc1,,inactive: 1.49% [at 102 µM]
Cc1c(Cl)cccc1NC(=O)Cc1ccc([N+](=O)[O-])cc1,"inconclusive: 79.4 µM [inhibitor, single point]",
Cc1ccc(C)c(OCCCn2c(-c3ccc(Cl)cc3)nc3ccccc3c2=O)c1,"inconclusive: 7.94 µM [inhibitor, partial curve, poor fit]",
O=C(CC1S/C(=N/N=C/c2ccco2)NC1=O)Nc1ccccc1 (configuration not stated),,inactive: 46.8%
Cc1ccc2nc(CSc3nnc(-c4ccco4)o3)cc(=O)n2c1,"inconclusive: 28.2 µM [inhibitor, single point]",
c1ccc(Nc2ccccc2)cc1,"inconclusive: 56.2 µM [inhibitor, partial curve]",
O=C(NCC1CCCO1)C(c1cccs1)N(Cc1cccs1)C(=O)c1ccc(-c2ccccc2)[nH]1 (configuration not stated),"inconclusive: 28.2 µM [inhibitor, single point]",

Structure (SMILES),Potency,"activity, negative = inhibition"
COC(=O)/C(C#N)=C/c1c(N2CCN(Cc3ccc4c(c3)OCO4)CC2)nc2c(C)cccn2c1=O,"inconclusive: 22.4 µM [inhibitor, full curve]",
CCOC(=O)CSc1nnc(CNC(=O)c2ccc([N+](=O)[O-])cc2)n1C,,inactive: -4.99% [at 102 µM]
Nc1cc(C(=O)O)ccc1N1CCCCC1,"inconclusive: 31.6 µM [inhibitor, single point]",
CCN1C(=O)c2ccccc2Sc2ccc(NC(=O)Nc3ccc(C(C)=O)cc3)cc21,"inconclusive: 35.5 µM [inhibitor, partial curve, poor fit]",
CC(=O)NC(c1ccco1)c1cc(Cl)c2ccc(N(C)C)nc2c1O (configuration not stated),"inconclusive: 2.82 µM [inhibitor, partial curve, poor fit]",
CCC(C(=O)OCC(=O)c1ccc(OC)cc1OC)c1ccccc1 (configuration not stated),,inactive: 22.2%
CN(C)CCCn1c2c(c(SCC(=O)Nc3ccc4c(c3)OCO4)nc1=O)CCCC2,"inconclusive: 63.1 µM [inhibitor, partial curve, poor fit]",
COc1ccc(S(=O)(=O)N2CCN=C2SCc2cccc(C)c2)cc1,,inactive: 173% [at 102 µM]
CCN(CC)S(=O)(=O)c1ccc(NCC2COc3ccccc3O2)c([N+](=O)[O-])c1 (configuration not stated),"inconclusive: 22.4 µM [inhibitor, single point]",
Cc1ccc(S(=O)(=O)n2cnc3cc([N+](=O)[O-])ccc32)c(C)c1C,"inconclusive: 50.1 µM [inhibitor, partial curve]",
Cc1ccc(NC(=O)c2cc(-n3cnnc3)ccc2Cl)c(C)c1,"inconclusive: 0.355 µM [inhibitor, full curve, poor fit]",
O=C(O)CCC(=O)NN1C(=O)c2ccccc2NC1c1ccc(F)cc1 (configuration not stated),"inconclusive: 28.2 µM [inhibitor, single point]",
COC(=O)/C(C#N)=C/c1c(N2CCN(c3ccccc3)CC2)nc2c(C)cccn2c1=O,"inconclusive: 79.4 µM [inhibitor, partial curve, poor fit]",
CCOc1ccc(C(O)c2nccn2C)cc1 (configuration not stated),"inconclusive: 79.4 µM [inhibitor, single point]",
O=C(OCc1csc(Nc2ccccc2)n1)c1ccc(Cl)cc1,"inconclusive: 89.1 µM [inhibitor, single point]",
COCCCNC(=O)c1ccc(N2CCCC2)c(NS(=O)(=O)c2ccc(C)cc2)c1,active: 7.94 µM,
CCc1cccc(C)c1NC(=O)COCc1cc(-c2ccc3c(c2)OCO3)on1,,inactive: -24.5%
CCOC(=O)C1=C(CC)Nc2ccccc2N=C1NC(=O)c1ccc(OC)c(S(=O)(=O)N2CCCCC2C)c1 (configuration not stated),"inconclusive: 89.1 µM [inhibitor, single point]",
CCOc1ccc(-c2nnn(CC(=O)N3CCCC3)n2)cc1OCC,"inconclusive: 39.8 µM [inhibitor, partial curve, poor fit]",
O=C(CNCC1CCCCC1)Nc1cccc(S(=O)(=O)N2CCOCC2)c1,active: 17.8 µM,
CC1CCC(NC(=O)COC(=O)C2=NN(c3ccccc3)C(=O)CC2)CC1 (configuration not stated),"inconclusive: 31.6 µM [inhibitor, single point]",
C[C@]12CC[C@@H]3c4ccc(O)cc4CC[C@H]3[C@@H]1CC[C@@H]2O,active: 20 µM,
COC(=O)c1sc(N)c(C(=O)OC)c1CSc1nnc(-c2ccccc2Cl)n1C,"inconclusive: 56.2 µM [inhibitor, partial curve]",

Structure (SMILES),Potency,"activity, negative = inhibition"
CCC1=NN2C(=N)/C(=C\c3ccc(OCCOc4ccccc4OC)cc3)C(=O)N=C2S1,,inactive: -10.4% [at 102 µM]
CN1CCc2c(sc3c2c(NCc2ccco2)nc2nnnn23)C1,"inconclusive: 89.1 µM [inhibitor, single point]",
CCCCc1nn2c(N)c(/C=C3\C=Nc4ccccc43)c(=O)nc2s1,"inconclusive: 100 µM [inhibitor, single point]",
CCn1nc2cc(C(=O)NCCc3cccs3)ccc2c1OC,"inconclusive: 0.891 µM [inhibitor, full curve, poor fit]",
CCCc1ccc(OCC(O)CN2CCN(CCO)CC2)cc1 (configuration not stated),"inconclusive: 89.1 µM [inhibitor, partial curve, poor fit]",
Cc1ccccc1CSc1nnc(-c2ccco2)n1Cc1ccco1,,inactive: 22.8% [at 0.501 µM]
O=C(Nc1oc2ccccc2c(=O)c1-c1ccc(Cl)cc1)c1ccco1,"inconclusive: 17.8 µM [inhibitor, partial curve, poor fit]",
Cc1[nH]c(-c2ccco2)nc1C(=O)O,active: 20 µM,
CCN1CCN(C(=S)NCCOC)CC1,active: 15.8 µM,
Cc1nn(CC(=O)N2CCC(C)CC2)c(=O)c2nn(-c3ccccc3)c(C)c12,,inactive: 20.4% [at 102 µM]
O=C1CN(C(=O)COC(=O)c2ccc(Cl)cc2)c2ccccc2N1,"inconclusive: 44.7 µM [inhibitor, partial curve, poor fit]",
Cc1ccc(NCc2nc3ccccc3n2CCOc2ccccc2C)cc1,active: 15.8 µM,
COc1cc(CNc2ccc3[nH]c(=O)[nH]c3c2)ccc1OCc1c(F)cccc1Cl,"inconclusive: 44.7 µM [inhibitor, single point]",
CC(=O)N1CCCc2cc(S(=O)(=O)NCCC3=CCCCC3)ccc21,"inconclusive: 44.7 µM [inhibitor, partial curve, poor fit]",
COc1ccc(S(=O)(=O)Nc2c(C(=O)O)[nH]c3ccc(OC)cc23)cc1,active: 7.94 µM,
CCOc1cc(/C=C2\SC(=Nc3ccc(F)cc3)N(c3ccc(F)cc3)C2=O)ccc1OCC(=O)O,"inconclusive: 50.1 µM [inhibitor, partial curve, poor fit]",
Cc1sc2ncn(CC(=O)NCCCC(=O)Nc3ccc(C(C)C)cc3)c(=O)c2c1C,,inactive: 6.43%
Cc1ccc(-n2ncc3c(N4CCC(C)CC4)ncnc32)cc1C,,inactive: 23.1%
COc1ccc(-c2sc(Nc3ccccc3)n[n+]2-c2ccc(F)cc2)c(C)c1C,"inconclusive: 100 µM [inhibitor, single point]",
Cc1ccc(-c2cnc(NCc3ccc(C(C)C)cc3)n2C)cc1,active: 2.82 µM,
O=C(OCc1ccco1)c1ccc(S(=O)(=O)N2CCCCC2)cc1,"inconclusive: 31.6 µM [inhibitor, single point]",
